Measurements as given in PubChem BioAssay (Tox21).
This list was built around the results that the source calls inconclusive (neither active nor inactive); the mix of calls is not that of the screen. No potency is given beside an inconclusive call; the fits are too rough. Activity calls are given as the source filed them. Calls come from the whole dose curve; as a rule, active = well fitted cell-killing curve with a large enough effect in the repeat runs; inconclusive = weak or mixed curves, or effect the other way; inactive = no such curve, though single readings can be large or run the other way.

Assay: qHTS assay to identify small molecule agonists of the farnesoid-X-receptor (FXR) signaling pathway - cell viability counter screen (AID 743218); note: nearly all actives have a fitted effect of over 45% in size
Conditions: FXR-bla HEK293T viability, CellTiter-Glo luminescence, 16 h; series mostly up to 62.6 µM
Excerpt: U.S. Tox21 Program National Center for Advancing Translational Sciences [NCATS] NIH Chemical Genomics Center [NCGC] U.S. Environmental Protection Agency [EPA] National Institutes of Environmental Health Sciences [NIEHS] National Toxicology Program [NTP] U.S. Food and Drug Administration [FDA] Tox21 Assay Overview: The farnesoid-X-receptor (FXR), a nuclear hormone receptor, is highly expressed in liver, intestine, kidney and adrenal cortex. Natural ligands of FXR are the bile acids (Cholic acid, Chenodeoxy cholic acid etc). FXR is an important regulator of diverse metabolic pathways, including the bile acid homeostasis, lipid and glucose metabolisms. FXR regulates the expression of target genes by binding either as a monomer or as a heterodimer with the retinoid X receptor (RXR). Numerous studies have reported that FXR exerts protective function during cholestasis, diabetes, liver regeneration, and cancer. To identify compounds that activate FXR signaling, GeneBLAzer FXR-UAS-bla HEK 293T cell line (Invitrogen, Carlsbad, CA) containing a beta-lactamase reporter gene under the control of a UAS response element was used to screen the Tox21 10K compound library. The cytotoxicity of the Tox21 compound library against the FXR-bla cell line was tested in parallel by measuring the cell viability using CellTiter-Glo assay in the same wells.
Tox21 Assay Protocol Summary: FXR-bla cells were dispensed at 5000 cells/5uL/well in 1536-well black wall/clear bottom plates using a Multidrop Combi (Thermo Fisher Scientific, Waltham, MA) dispenser. After the assay plates were incubated at 37 C and 5% CO2 for 5 h, 23 nL of compounds dissolved in DMSO, positive controls or DMSO only was transferred to the assay plate by a Pintool station (Kalypsys, San Diego, CA). The assay plates were incubated at 37C for 16 h. After 1 uL of LiveBLAzerTM B/G FRET substrate was added using a Bioraptr Flying Reagent Dispenser (FRD) workstation (Beckman Coulter, Indianapolis, IN), the plates were incubated at room temperature for 2 h, and fluorescence intensity was measured by an Envision plate reader (PerkinElmer, Shelton, CT). For cell viability readout that measures cytotoxicity, 4uL/well of CellTiter-Glo reagent was added into the assay plates using a Bioraptr FRD. After 30 min incubation at room temperature, the luminescence intensity in the plates was measured using a ViewLux plate reader (PerkinElmer).
Potency is the fitted concentration of half-maximal effect; tags give direction and shape of the fitted curve.

| SMILES | Potency |
| --- | --- |
| c1ccc2c(c1)sc1ccccc12 | inconclusive [cytotoxic, single point] |
| CCCCCCBr | inconclusive [rising, partial curve, poor fit] |
| IC(I)=C(I)I | active: 12.3 µM |
| O=[N+]([O-])O.O=[N+]([O-])O.[Cd] | active: 12.3 µM |
| Oc1ccc2[nH]cc(CCCCN3CC=C(c4ccccc4)CC3)c2c1 | inconclusive [cytotoxic, partial curve, poor fit] |
| COC(N)=O | inconclusive [cytotoxic, partial curve, poor fit] |
| CCCCC(CC)COC(=O)OOC(C)(C)C (stereo not given) | inconclusive [rising, full curve] |
| COc1ccc2c3c1O[C@H]1[C@@H](O)C=C[C@H]4[C@@H](C2)N(C)CC[C@@]341 | inconclusive [cytotoxic, single point] |
| NNC(=O)c1cccnc1 | inconclusive [cytotoxic, single point] |
| CC(C)N(CCC(C(N)=O)(c1ccccc1)c1ccccn1)C(C)C (stereo not given) | inactive |
| COC(=O)/C=C(\C)OP(=O)(OC)OC | inactive |
| O=[N+]([O-])c1ccc(CCl)cc1 | inconclusive [rising, partial curve, poor fit] |
| Clc1ccccc1-c1nnc(-c2ccccc2Cl)nn1 | inactive |
| C=CC(=O)OCC(C)C | inactive |
| CCC(OC(C)=O)C(CC(C)NC)(c1ccccc1)c1ccccc1 (stereo not given) | active: 61.6 µM |
| C[C@]12CCC(=O)C=C1CC[C@@H]1[C@@H]2CC[C@@]2(C)[C@H]1CC[C@]2(C)O | inconclusive [rising, full curve] |
| Clc1ccc(CCC(Cn2ccnc2)Sc2c(Cl)cccc2Cl)cc1 (stereo not given) | inconclusive [cytotoxic, single point] |
| NS(=O)(=O)C(F)(F)C(F)(F)C(F)(F)C(F)(F)C(F)(F)C(F)(F)C(F)(F)C(F)(F)F | active: 54.9 µM |
| Fc1ccc(Oc2ccnc3cc(Cl)cc(Cl)c23)cc1 | inconclusive [cytotoxic, single point] |
| O=[N+]([O-])c1cc(Cl)c(Cl)c(Cl)c1 | inconclusive [rising, full curve, poor fit] |

| SMILES | Potency |
| --- | --- |
| Oc1cc(Cl)ccc1Cl | inconclusive [rising, partial curve, poor fit] |
| CC(C)(C)C(O)C(Oc1ccc(Cl)cc1)n1cncn1 (stereo not given) | inconclusive [rising, full curve, poor fit] |
| COP(=S)(OC)SCN1C(=O)c2ccccc2C1=O | inconclusive [rising, single point] |
| CCOP(=S)(OCC)OP(=S)(OCC)OCC | inconclusive [rising, partial curve, poor fit] |
| C[C@]12C=CC(=O)C=C1CC[C@@H]1[C@@H]2CC[C@@]2(C)[C@H]1CC[C@]2(C)O | inactive |
| CNC(C)Cc1ccccc1OC (stereo not given) | inconclusive [rising, full curve, poor fit] |
| Nc1ccccc1C(=O)OCC(O)CO (stereo not given) | inconclusive [rising, partial curve] |
| ClC(Cl)(Cl)C(Cl)(Cl)Cl | inactive |
| CCOCn1c(-c2ccc(Cl)cc2)c(C#N)c(Br)c1C(F)(F)F | active: 12.3 µM |
| CC(CC(C#N)(c1ccccc1)c1ccccc1)N(C)C (stereo not given) | inconclusive [cytotoxic, full curve, poor fit] |
| CC(COc1ccc(Oc2ccccc2)cc1)Oc1ccccn1 (stereo not given) | inconclusive [rising, partial curve] |
| CC(Oc1ccc(Cl)cc1Cl)C(=O)O (stereo not given) | inconclusive [cytotoxic, partial curve, poor fit] |
| CCc1ccccc1N | inactive |
| CC(=O)[O-].CC(=O)[O-].O.O.[Cd+2] | active: 1.53 µM |
| C[C@]12CC[C@H]3[C@@H](CCC4=CC(=O)CC[C@@H]43)[C@@H]1CC[C@@H]2OC(=O)CCc1ccco1 | active: 21.1 µM |
| CC1=C2C[C@H]3[C@@H](CC=C4C[C@@H](O)CC[C@@]43C)[C@@H]2CC[C@]12O[C@@H]1C[C@H](C)CN[C@H]1[C@H]2C | inconclusive [cytotoxic, full curve] |
| Nc1ccc(N=Nc2ccccc2)cc1 | inconclusive [cytotoxic, single point] |
| CCc1ccc(C(=O)NN(C(=O)c2cc(C)cc(C)c2)C(C)(C)C)cc1 | inconclusive [rising, single point] |
| CN(C)CCC#N | inconclusive [rising, partial curve, poor fit] |
| COC(=O)Nc1nc2ccccc2[nH]1 | inconclusive [rising, full curve, poor fit] |
